To fix the notation:
T1: RBFOX1 RRM RbFoxmut (Fox-RRM*) (Homo sapiens, UniProt Q9NWB1 109-208, R118D;E147R;N151S;E152T)
T1 sequence: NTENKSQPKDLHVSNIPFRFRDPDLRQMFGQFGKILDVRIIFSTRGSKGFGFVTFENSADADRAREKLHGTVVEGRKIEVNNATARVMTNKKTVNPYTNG

B1: CCAUCGA (DNA:RNA)
RNA: GGGAGACCGGAAUUCAGAUUGUCCCCAUCGAUUAAAUCCCGUCGUAGCCACCA
DNA 1: CAATCTGAATTCCGGTCTCCC
DNA 2: TGGTGGCTACGACGGGATT
B2: CUGAAGA (DNA:RNA)
RNA: B1 RNA with C26U, A27G, U28A, C29A
DNA 1: CAATCTGAATTCCGGTCTCCC
DNA 2: TGGTGGCTACGACGGGATT
B3: AGGGCAG (DNA:RNA)
RNA: B1 RNA with C25A, C26G, A27G, U28G, G30A, A31G
DNA 1: CAATCTGAATTCCGGTCTCCC
DNA 2: TGGTGGCTACGACGGGATT
B4: UUUAGCG (DNA:RNA)
RNA: GGGAGACCGGAAUUCAGAUUGUCCUUUAGCGUUAAAUCCCGUCGUAGCCACCA
DNA 1: CAATCTGAATTCCGGTCTCCC
DNA 2: TGGTGGCTACGACGGGATT
B5: UUGAAAG (DNA:RNA)
RNA: B4 RNA with U27G, G29A, C30A
DNA 1: CAATCTGAATTCCGGTCTCCC
DNA 2: TGGTGGCTACGACGGGATT
B6: CGGCGGA (DNA:RNA)
RNA: B1 RNA with C26G, A27G, U28C, C29G
DNA 1: CAATCTGAATTCCGGTCTCCC
DNA 2: TGGTGGCTACGACGGGATT
B7: AAAAUAG (DNA:RNA)
RNA: B4 RNA with U25A, U26A, U27A, G29U, C30A
DNA 1: CAATCTGAATTCCGGTCTCCC
DNA 2: TGGTGGCTACGACGGGATT
B8: UUGAGCU (DNA:RNA)
RNA: B4 RNA with U27G, G31U
DNA 1: CAATCTGAATTCCGGTCTCCC
DNA 2: TGGTGGCTACGACGGGATT
B9: GAUGCGC (DNA:RNA)
RNA: B1 RNA with C25G, C26A, A27U, U28G, A31C
DNA 1: CAATCTGAATTCCGGTCTCCC
DNA 2: TGGTGGCTACGACGGGATT
B10: AAGACUU (DNA:RNA)
RNA: B1 RNA with C25A, C26A, A27G, U28A, G30U, A31U
DNA 1: CAATCTGAATTCCGGTCTCCC
DNA 2: TGGTGGCTACGACGGGATT
B11: AUGCACA (DNA:RNA)
RNA: B4 RNA with U25A, U27G, A28C, G29A, G31A
DNA 1: CAATCTGAATTCCGGTCTCCC
DNA 2: TGGTGGCTACGACGGGATT
B12: GGAAUUG (DNA:RNA)
RNA: B4 RNA with U25G, U26G, U27A, G29U, C30U
DNA 1: CAATCTGAATTCCGGTCTCCC
DNA 2: TGGTGGCTACGACGGGATT
B13: CGCCAUG (DNA:RNA)
RNA: B1 RNA with C26G, A27C, U28C, C29A, G30U, A31G
DNA 1: CAATCTGAATTCCGGTCTCCC
DNA 2: TGGTGGCTACGACGGGATT
B14: GUGAAGG (DNA:RNA)
RNA: B4 RNA with U25G, U27G, G29A, C30G
DNA 1: CAATCTGAATTCCGGTCTCCC
DNA 2: TGGTGGCTACGACGGGATT
B15: CCAAGGG (DNA:RNA)
RNA: B1 RNA with U28A, C29G, A31G
DNA 1: CAATCTGAATTCCGGTCTCCC
DNA 2: TGGTGGCTACGACGGGATT
B16: CCCCACU (DNA:RNA)
RNA: B1 RNA with A27C, U28C, C29A, G30C, A31U
DNA 1: CAATCTGAATTCCGGTCTCCC
DNA 2: TGGTGGCTACGACGGGATT
B17: GGUAACU (DNA:RNA)
RNA: B4 RNA with U25G, U26G, G29A, G31U
DNA 1: CAATCTGAATTCCGGTCTCCC
DNA 2: TGGTGGCTACGACGGGATT
B18: UACGGUC (DNA:RNA)
RNA: B4 RNA with U26A, U27C, A28G, C30U, G31C
DNA 1: CAATCTGAATTCCGGTCTCCC
DNA 2: TGGTGGCTACGACGGGATT
B19: GAUUUCG (DNA:RNA)
RNA: B4 RNA with U25G, U26A, A28U, G29U
DNA 1: CAATCTGAATTCCGGTCTCCC
DNA 2: TGGTGGCTACGACGGGATT
B20: UUGACAG (DNA:RNA)
RNA: B4 RNA with U27G, G29C, C30A
DNA 1: CAATCTGAATTCCGGTCTCCC
DNA 2: TGGTGGCTACGACGGGATT
B21: ACCUUUC (DNA:RNA)
RNA: B1 RNA with C25A, A27C, C29U, G30U, A31C
DNA 1: CAATCTGAATTCCGGTCTCCC
DNA 2: TGGTGGCTACGACGGGATT
B22: GUCCCUG (DNA:RNA)
RNA: B4 RNA with U25G, U27C, A28C, G29C, C30U
DNA 1: CAATCTGAATTCCGGTCTCCC
DNA 2: TGGTGGCTACGACGGGATT
B23: AUGCACU (DNA:RNA)
RNA: B4 RNA with U25A, U27G, A28C, G29A, G31U
DNA 1: CAATCTGAATTCCGGTCTCCC
DNA 2: TGGTGGCTACGACGGGATT
B24: UCACUCU (DNA:RNA)
RNA: B1 RNA with C25U, U28C, C29U, G30C, A31U
DNA 1: CAATCTGAATTCCGGTCTCCC
DNA 2: TGGTGGCTACGACGGGATT
B25: ACUAAUU (DNA:RNA)
RNA: B4 RNA with U25A, U26C, G29A, C30U, G31U
DNA 1: CAATCTGAATTCCGGTCTCCC
DNA 2: TGGTGGCTACGACGGGATT
B26: AACCGAC (DNA:RNA)
RNA: B4 RNA with U25A, U26A, U27C, A28C, C30A, G31C
DNA 1: CAATCTGAATTCCGGTCTCCC
DNA 2: TGGTGGCTACGACGGGATT
B27: UAAGAGC (DNA:RNA)
RNA: B1 RNA with C25U, C26A, U28G, C29A, A31C
DNA 1: CAATCTGAATTCCGGTCTCCC
DNA 2: TGGTGGCTACGACGGGATT
B28: GCUAUGG (DNA:RNA)
RNA: B4 RNA with U25G, U26C, G29U, C30G
DNA 1: CAATCTGAATTCCGGTCTCCC
DNA 2: TGGTGGCTACGACGGGATT
B29: UUUGUUU (DNA:RNA)
RNA: B4 RNA with A28G, G29U, C30U, G31U
DNA 1: CAATCTGAATTCCGGTCTCCC
DNA 2: TGGTGGCTACGACGGGATT
B30: GACCUUG (DNA:RNA)
RNA: B4 RNA with U25G, U26A, U27C, A28C, G29U, C30U
DNA 1: CAATCTGAATTCCGGTCTCCC
DNA 2: TGGTGGCTACGACGGGATT
B31: UAGCGGU (DNA:RNA)
RNA: B4 RNA with U26A, U27G, A28C, C30G, G31U
DNA 1: CAATCTGAATTCCGGTCTCCC
DNA 2: TGGTGGCTACGACGGGATT

Numbering of substitutions follows the chain as printed; changes in the protein carry UniProt numbers. The list shows a part of the results.

The test addresses T1, RBFOX1 RRM RbFoxmut (Fox-RRM*). As to the kind of experiment: EMSA; HiTS-Eq, 1 nM pool, 10 min; buffer printed only for the single-RNA assays: 10 mM Tris pH 7.5, 150 mM NaCl, 3.4 mM EDTA, 0.001% NP-40, 30 C. The settings on record: tags: His6 N-terminal (pET28a); label: 5' 32P. The essentials:
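Relative association constants, normalised to the cognate motif, were derived by comparing read counts of each RNA species with those of the control reaction. The RNA sequenced was the free fraction, separated by 8% native PAGE after a 10 min equilibration in 50 µL of 1 nM 5′-radiolabelled RNA (7 randomized nucleotides) with increasing concentrations of purified wild-type or mutant RbFox RRM.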
(A gel shift assay detects complexes by their altered migration in electrophoresis.)
B1: the binding signal was 0.0828 KA relative to UGCAUGU.
Then B2, with 0.0948 KA relative to UGCAUGU; and B3, with 0.0849 KA relative to UGCAUGU.
Turning to B4, the binding signal is 0.129 KA relative to UGCAUGU.
To B5 belongs 0.103 KA relative to UGCAUGU.
In the case of B6, the binding signal is 0.121 KA relative to UGCAUGU.
With B7, the binding signal is 0.115 KA relative to UGCAUGU.
Regarding B8, the binding signal is 0.0876 KA relative to UGCAUGU.
For B9, the binding signal is 0.114 KA relative to UGCAUGU.
Regarding B10, the binding signal was 0.0884 KA relative to UGCAUGU.
As to B11, the binding signal was 0.089 KA relative to UGCAUGU.
With B12, the binding signal is 0.218 KA relative to UGCAUGU.
B13: the binding signal was 0.155 KA relative to UGCAUGU.
For B14, the binding signal was 0.0716 KA relative to UGCAUGU.
As to B15, the binding signal is 0.0538 KA relative to UGCAUGU.
Then B16, with 0.145 KA relative to UGCAUGU; and B17, with 0.0653 KA relative to UGCAUGU.
To B18 belongs 0.158 KA relative to UGCAUGU; to B19, 0.0675 KA relative to UGCAUGU.
For B20, the binding signal is 0.0597 KA relative to UGCAUGU.
To B21 belongs 0.0438 KA relative to UGCAUGU.
As to B22, the binding signal is 0.0884 KA relative to UGCAUGU.
As for B23, the binding signal is 0.088 KA relative to UGCAUGU.
Take B24: the binding signal is 0.0554 KA relative to UGCAUGU.
Turning to B25, the binding signal is 0.0778 KA relative to UGCAUGU.
To B26 belongs 0.0558 KA relative to UGCAUGU; to B27, 0.0654 KA relative to UGCAUGU.
Regarding B28, the binding signal was 0.137 KA relative to UGCAUGU.
Take B29: the binding signal was 0.0998 KA relative to UGCAUGU.
Regarding B30, the binding signal was 0.0871 KA relative to UGCAUGU.
Consider B31, for which the binding signal is 0.106 KA relative to UGCAUGU.

The values above are taken from PMC9911399, “Two distinct binding modes provide the RNA-binding protein RbFox with extraordinary sequence specificity”.
